Measured values taken from the RNAGym collection of RNA variant scans (doi:10.7554/elife.90254).
Read counts are not given, so values of variants with three or more changes are uncertain.

B1: LINE1-mini (parent)
chain: GGCAGAGCUCAACACAGCGUGGCAAAGUGGCUGUGGCUAGACUGCC

Variants of: B1
Assay: self-cleavage, relative activity (ratio to wild type); higher = more cleavage; in vitro, sequencing; the parent is a self-cleaving ribozyme
In the case of A24G C31U C46G, the self-cleavage is reported as 0.05.
A24G G27C C31U gave a self-cleavage of 0.01.
Work on A24G G29C G30A C37A A41C yielded a self-cleavage of 0.02.
With A24G G30A C37A C45A the self-cleavage was 0.1.
With A24G G30U U32C the self-cleavage was 0.05.
Work on A24G G33C G35A G36U A41C yielded a self-cleavage of 0.
In the case of A24G G35C C37A, the self-cleavage is reported as 0.18.
In the case of A24G G36U C46A, the self-cleavage is reported as 0.05.
Work on A24G G40U U43G yielded a self-cleavage of 0.37.
A24G U28A G40A gave a self-cleavage of 0.15.
Work on A24G U28C G44C yielded a self-cleavage of 0.33.
For A24G U34G A39U, the self-cleavage was 0.1.
A24U A25C G40C showed a self-cleavage of 0.18.
With A24U A25U G27A the self-cleavage was 0.87.
Variant A24U A25U G27C has a self-cleavage of 1.43.
In the case of A24U A25U G35A, the self-cleavage is reported as 0.12.
In the case of A24U A25U G40A C45A, the self-cleavage is reported as 0.08.
Work on A24U A26C C31A yielded a self-cleavage of 0.22.
A24U A26C G29U gave a self-cleavage of 1.63.
A24U A26G A41C showed a self-cleavage of 0.05.
In the case of A24U A26G C42G C46U, the self-cleavage is reported as 0.1.
Variant A24U A26U C46A has a self-cleavage of 1.11.
Work on A24U A26U G30U yielded a self-cleavage of 0.52.
Work on A24U A26U G36C yielded a self-cleavage of 0.02.
In the case of A24U A26U G40C G44A, the self-cleavage is reported as 0.02.
A24U A26U U38G gave a self-cleavage of 0.01.
In the case of A24U A39G C42U C46G, the self-cleavage is reported as 0.09.
A24U C31A C42G gave a self-cleavage of 0.06.
A24U C31A C46G showed a self-cleavage of 0.09.
Variant A24U C31U A39C U43C has a self-cleavage of 0.06.
Variant A24U G27A A39C G44U has a self-cleavage of 0.03.
Work on A24U G27C U28C C31U G44U yielded a self-cleavage of 0.67.
For A24U G27U G40U, the self-cleavage was 0.14.
Work on A24U G29C C37U U38A yielded a self-cleavage of 0.01.
For A24U G29C C42U C46A, the self-cleavage was 0.02.
In the case of A24U G33U G36U G44A, the self-cleavage is reported as 0.04.
With A24U G36C C42A the self-cleavage was 0.01.
Variant A24U G36U G44A has a self-cleavage of 0.05.
In the case of A24U G40C A41G, the self-cleavage is reported as 0.02.
A24U G40C G44U gave a self-cleavage of 0.06.
A24U U28A G40C gave a self-cleavage of 0.07.
For A24U U28A U38A, the self-cleavage was 0.18.
In the case of A24U U28C C46A, the self-cleavage is reported as 1.52.
Work on A24U U28C G35A yielded a self-cleavage of 0.08.
A24U U28C U32A gave a self-cleavage of 0.08.
A24U U32C G33C gave a self-cleavage of 0.03.
With A24U U34C G36U the self-cleavage was 0.07.
Work on A24U U38A U43G yielded a self-cleavage of 0.01.
Variant A24U U38G A41C C46G has a self-cleavage of 0.03.
Work on A24U U38G A41U G44A yielded a self-cleavage of 0.02.
In the case of A25C A26C C46U, the self-cleavage is reported as 0.84.
For A25C A26C G30C, the self-cleavage was 1.29.
A25C A26U G33U U34A G36U C45A gave a self-cleavage of 0.24.
With A25C A41G G44A C45A the self-cleavage was 0.06.
A25C C31G U38C gave a self-cleavage of 0.01.
A25C C31U G33C gave a self-cleavage of 0.03.
In the case of A25C C37U G44C, the self-cleavage is reported as 0.04.
With A25C G27C U32G the self-cleavage was 0.11.
For A25C G27U C31A G33U, the self-cleavage was 0.16.
A25C G29A U38A gave a self-cleavage of 0.46.
Work on A25C G29C G44A yielded a self-cleavage of 0.15.
Work on A25C G29C G44U yielded a self-cleavage of 0.13.
A25C G29U G35A G36A U43C gave a self-cleavage of 0.04.
Variant A25C G30A G35U C42U C45A has a self-cleavage of 0.03.
With A25C G30C G40A the self-cleavage was 0.14.
With A25C G30U G33A U34C the self-cleavage was 0.05.
With A25C G33A C42U C45U the self-cleavage was 0.03.
In the case of A25C G33C G44A, the self-cleavage is reported as 0.01.
With A25C G33U G44A the self-cleavage was 0.02.
A25C G35A C37A C42A showed a self-cleavage of 0.05.
For A25C G36U A41C, the self-cleavage was 0.04.
A25C G40U G44A gave a self-cleavage of 0.01.
A25C G44C C45A showed a self-cleavage of 0.13.
In the case of A25C U32G G36C, the self-cleavage is reported as 0.08.
Work on A25C U32G G44A yielded a self-cleavage of 0.04.
In the case of A25C U34A C42G, the self-cleavage is reported as 0.16.
For A25C U34C G44C, the self-cleavage was 0.03.
For A25C U38A C42A C46G, the self-cleavage was 0.03.
A25C U38A G40A gave a self-cleavage of 0.04.
A25C U38C G44C C45G gave a self-cleavage of 0.1.
For A25G A26C C46A, the self-cleavage was 0.71.
A25G A26U U28A C42A C46A gave a self-cleavage of 0.03.
In the case of A25G A39G A41C, the self-cleavage is reported as 0.04.
Variant A25G A41G G44U has a self-cleavage of 0.06.
In the case of A25G C31A G36A, the self-cleavage is reported as 0.14.
Variant A25G G27A G40C has a self-cleavage of 0.02.
With A25G G27A G44U the self-cleavage was 0.25.
Variant A25G G27U G36A has a self-cleavage of 0.23.
With A25G G29A C37G the self-cleavage was 0.02.
Work on A25G G29C A41U yielded a self-cleavage of 0.02.
Variant A25G G30U G33U G35C A41U C42U has a self-cleavage of 0.17.
Variant A25G G30U U34A C42G U43A has a self-cleavage of 0.01.
Work on A25G G35U G36C yielded a self-cleavage of 0.02.
A25G G36C U43C gave a self-cleavage of 0.02.
In the case of A25G U32A C37G C46A, the self-cleavage is reported as 0.
Variant A25G U32C C42U has a self-cleavage of 0.04.
For A25G U32C G33U, the self-cleavage was 0.05.
With A25G U32G G36U the self-cleavage was 0.03.
For A25U A26G G35A, the self-cleavage was 0.19.
Variant A25U A26U A39C G44C C45U has a self-cleavage of 0.05.
A25U A26U C31G C42U gave a self-cleavage of 0.02.
In the case of A25U A41U C42A, the self-cleavage is reported as 0.05.
A25U C31A G36A showed a self-cleavage of 0.17.
Work on A25U C31U G35U C45A yielded a self-cleavage of 0.01.
Variant A25U C42U U43G has a self-cleavage of 0.3.
With A25U G27A G44U the self-cleavage was 0.14.
With A25U G27C C31A the self-cleavage was 0.3.
Variant A25U G27U C37A U38G G44A has a self-cleavage of 0.01.
A25U G27U C45A showed a self-cleavage of 1.54.
With A25U G29A C42G the self-cleavage was 0.02.
A25U G29A G36A showed a self-cleavage of 0.04.
A25U G29C C31G gave a self-cleavage of 0.07.
A25U G29C U34C gave a self-cleavage of 0.13.
For A25U G29U C45G, the self-cleavage was 0.35.
With A25U G33C G35A U38C the self-cleavage was 0.03.
Work on A25U G35U C42G C45G yielded a self-cleavage of 0.1.
With A25U G36A U43C the self-cleavage was 0.05.
Work on A25U U28A G30C yielded a self-cleavage of 1.59.
Variant A25U U34G A41U has a self-cleavage of 0.06.
A25U U38A G40U showed a self-cleavage of 0.11.
In the case of A26C C31A A39G, the self-cleavage is reported as 0.06.
A26C C31G G35C A39C showed a self-cleavage of 0.02.
With A26C C31U C46A the self-cleavage was 0.04.
In the case of A26C G27A C45U C46G, the self-cleavage is reported as 0.21.
With A26C G27U U28C G30U A39U C46A the self-cleavage was 0.1.
For A26C G29A G40U C45A, the self-cleavage was 0.01.
A26C G29A U38A C46U showed a self-cleavage of 0.55.
With A26C G29U C31A U32A the self-cleavage was 0.06.
A26C G33C A39C gave a self-cleavage of 0.04.
A26C G33C G35A showed a self-cleavage of 0.06.
With A26C G35A G40U the self-cleavage was 0.02.
Work on A26C G36A C46U yielded a self-cleavage of 0.12.
A26C G36U U38A G40U showed a self-cleavage of 0.03.
A26C U28C U43G showed a self-cleavage of 0.
Variant A26C U32C C42U has a self-cleavage of 0.11.
With A26C U32C G35A the self-cleavage was 0.09.
With A26C U34A U38A the self-cleavage was 0.21.
For A26C U34C U38A, the self-cleavage was 0.06.
A26G A39C C42A C45G showed a self-cleavage of 0.04.
A26G C31A C42U gave a self-cleavage of 0.02.
With A26G C31G G36U the self-cleavage was 0.02.
In the case of A26G C45A C46G, the self-cleavage is reported as 0.18.
Variant A26G G27U C45U has a self-cleavage of 1.06.
A26G G29U U38C showed a self-cleavage of 0.11.
Variant A26G G33U U34G has a self-cleavage of 0.02.
For A26G G36A G40U, the self-cleavage was 0.4.
In the case of A26G G36C C46A, the self-cleavage is reported as 0.05.
With A26G U28A C45G the self-cleavage was 0.72.
Work on A26G U28A U38C A41G yielded a self-cleavage of 0.04.
A26G U28C G36U showed a self-cleavage of 0.03.
In the case of A26G U28G C37A, the self-cleavage is reported as 0.02.
For A26G U28G C42U, the self-cleavage was 0.06.
A26G U32A U34A C46G showed a self-cleavage of 0.08.
For A26G U38G G44U, the self-cleavage was 0.01.
With A26U A39C A41G G44A the self-cleavage was 0.05.
Work on A26U A39C U43C yielded a self-cleavage of 0.06.
A26U A39G C42A G44U showed a self-cleavage of 0.
Variant A26U C37A A41C has a self-cleavage of 0.03.
A26U C37A C46U showed a self-cleavage of 0.09.
Variant A26U C37U C45U has a self-cleavage of 0.01.
Work on A26U C37U U43C yielded a self-cleavage of 0.06.
A26U C42G U43C gave a self-cleavage of 0.04.
For A26U G27A C31G C45A, the self-cleavage was 0.07.
For A26U G27C A39C C42A, the self-cleavage was 0.08.
With A26U G27C G29U the self-cleavage was 0.22.
With A26U G27U C46A the self-cleavage was 0.64.
A26U G27U G30U A41U showed a self-cleavage of 0.1.
